Reference: the supplement of paper PMC8728848
The other results are listed elsewhere or left out.

Columns and labels:
Assay in all cases: glycan array binding signal (z-score within array); higher = stronger binding
Settings in all cases: glycan notation: IUPAC condensed, linker removed
[1] = target: Fuc(a1-2)[GalNAc(b1-3)]Gal
How it was run: (§1)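 The binding signal is a Z-score computed within each array. Data were drawn from 3228 arrays in the Consortium for Functional Glycomics database, restricted to those with a known protein sequence. Scores were averaged over arrays of the same protein sequence at different concentrations or buffers, and over linkers, and negative values can be taken as non-binding.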

Fuc(a1-3)GlcNAc = target: Fuc(a1-3)GlcNAc
How it was run: as §1

[2] = target: Fuc(a1-3)[Gal(b1-4)]Glc6S
How it was run: as §1

[3] = target: Fuc(a1-3)[Gal(b1-4)]GlcNAc
How it was run: as §1

[4] = target: Fuc(a1-3)[Gal(b1-4)]GlcNAc(b1-2)Man
How it was run: as §1

[5] = target: Fuc(a1-3)[Gal(b1-4)]GlcNAc(b1-2)Man(a1-3)[Fuc(a1-3)[Gal(b1-4)]GlcNAc(b1-2)Man(a1-6)]Man(b1-4)GlcNAc(b1-4)GlcNAc
How it was run: as §1

[6] = target: Fuc(a1-3)[Gal(b1-4)]GlcNAc(b1-2)Man(a1-3)[Fuc(a1-3)[Gal(b1-4)]GlcNAc(b1-2)Man(a1-6)]Man(b1-4)GlcNAc(b1-4)[Fuc(a1-6)]GlcNAc
How it was run: as §1

[7] = target: Fuc(a1-3)[Gal(b1-4)]GlcNAc(b1-3)Gal(b1-3)[Fuc(a1-4)]GlcNAc
How it was run: as §1

[8] = target: Fuc(a1-3)[Gal(b1-4)]GlcNAc(b1-3)Gal(b1-4)[Fuc(a1-3)]GlcNAc
How it was run: as §1

[9] = target: Fuc(a1-3)[Gal(b1-4)]GlcNAc(b1-3)Gal(b1-4)[Fuc(a1-3)]GlcNAc(b1-3)Gal(b1-4)[Fuc(a1-3)]GlcNAc
How it was run: as §1

[10] = target: Fuc(a1-3)[Gal(b1-4)]GlcNAc(b1-3)GalNAc
How it was run: as §1

[11] = target: Fuc(a1-3)[Gal(b1-4)]GlcNAc(b1-6)GalNAc
How it was run: as §1

[12] = target: Fuc(a1-3)[Gal(b1-4)]GlcNAc(b1-6)[Gal(b1-3)GlcNAc(b1-3)]Gal(b1-4)Glc
How it was run: as §1

[13] = target: Fuc(a1-3)[Gal(b1-4)]GlcNAc6S
How it was run: as §1

[14] = target: Fuc(a1-3)[Gal3S(b1-4)]Glc
How it was run: as §1

[15] = target: Fuc(a1-3)[Gal3S(b1-4)]GlcNAc
How it was run: as §1

[16] = target: Fuc(a1-3)[Gal3S(b1-4)]GlcNAc6S
How it was run: as §1

[17] = target: Fuc(a1-3)[GalNAc(b1-4)]GlcNAc
How it was run: as §1

[18] = target: Fuc(a1-3)[GalNAc(b1-4)]GlcNAc6S
How it was run: as §1

Fuc(a1-4)GlcNAc = target: Fuc(a1-4)GlcNAc
How it was run: as §1

Fuc(b1-3)GlcNAc = target: Fuc(b1-3)GlcNAc
How it was run: as §1

Gal(a1-2)Gal = target: Gal(a1-2)Gal
How it was run: as §1

Gal(a1-3)Gal = target: Gal(a1-3)Gal
How it was run: as §1

Gal(a1-3)Gal(b1-3)GlcNAc = target: Gal(a1-3)Gal(b1-3)GlcNAc
How it was run: as §1

[19] = target: Gal(a1-3)Gal(b1-3)GlcNAc(b1-2)Man
How it was run: as §1

[20] = target: Gal(a1-3)Gal(b1-3)GlcNAc(b1-2)Man(a1-3)[Gal(a1-3)Gal(b1-3)GlcNAc(b1-2)Man(a1-6)]Man(b1-4)GlcNAc(b1-4)GlcNAc
How it was run: as §1

[21] = target: Gal(a1-3)Gal(b1-3)GlcNAc(b1-3)GalNAc
How it was run: as §1

[22] = target: Gal(a1-3)Gal(b1-3)GlcNAc(b1-6)GalNAc
How it was run: as §1

[23] = target: Gal(a1-3)Gal(b1-3)[Fuc(a1-4)]GlcNAc(b1-2)Man(a1-3)[Gal(a1-3)Gal(b1-3)[Fuc(a1-4)]GlcNAc(b1-2)Man(a1-6)]Man(b1-4)GlcNAc(b1-4)GlcNAc
How it was run: as §1

Gal(a1-3)Gal(b1-4)Glc = target: Gal(a1-3)Gal(b1-4)Glc
How it was run: as §1

Gal(a1-3)Gal(b1-4)GlcNAc = target: Gal(a1-3)Gal(b1-4)GlcNAc
How it was run: as §1

[24] = target: Gal(a1-3)Gal(b1-4)GlcNAc(b1-2)Man
How it was run: as §1

[25] = target: Gal(a1-3)Gal(b1-4)GlcNAc(b1-2)Man(a1-3)[Gal(a1-3)Gal(b1-4)GlcNAc(b1-2)Man(a1-6)]Man(b1-4)GlcNAc(b1-4)GlcNAc
How it was run: as §1

[26] = target: Gal(a1-3)Gal(b1-4)GlcNAc(b1-3)GalNAc
How it was run: as §1

[27] = target: Gal(a1-3)Gal(b1-4)GlcNAc(b1-6)GalNAc
How it was run: as §1

[28] = target: Gal(a1-3)Gal(b1-4)[Fuc(a1-3)]GlcNAc
How it was run: as §1

[29] = target: Gal(a1-3)Gal(b1-4)[Fuc(a1-3)]GlcNAc(b1-2)Man(a1-3)[Gal(a1-3)Gal(b1-4)[Fuc(a1-3)]GlcNAc(b1-2)Man(a1-6)]Man(b1-4)GlcNAc(b1-4)GlcNAc
How it was run: as §1

Gal(a1-3)GalNAc = target: Gal(a1-3)GalNAc
How it was run: as §1

[30] = target: Gal(a1-3)[Gal(a1-4)]Gal(b1-4)GlcNAc
How it was run: as §1

[31] = target: Gal(a1-4)Gal(b1-3)GlcNAc(b1-2)Man(a1-3)[Gal(a1-4)Gal(b1-3)GlcNAc(b1-2)Man(a1-6)]Man(b1-4)GlcNAc(b1-4)GlcNAc
How it was run: as §1

Gal(a1-4)Gal(b1-4)Glc = target: Gal(a1-4)Gal(b1-4)Glc
How it was run: as §1

Gal(a1-4)Gal(b1-4)GlcNAc = target: Gal(a1-4)Gal(b1-4)GlcNAc
How it was run: as §1

[32] = target: Gal(a1-4)Gal(b1-4)GlcNAc(b1-2)Man(a1-3)[Gal(a1-4)Gal(b1-4)GlcNAc(b1-2)Man(a1-6)]Man(b1-4)GlcNAc(b1-4)GlcNAc
How it was run: as §1

[33] = target: Gal(a1-4)Gal(b1-4)GlcNAc(b1-3)Gal(b1-4)Glc
How it was run: as §1

Gal(a1-4)GlcNAc = target: Gal(a1-4)GlcNAc
How it was run: as §1

B1: Sebin1 (Coprinopsis cinerea), A8PEE3 (protein)
chain: MTSPFYAHIHNVQDDNTWRFTLIFANRATADEWWRAISEAPANTSIAKSITRVTPQYYTHDVNIWNIWNFFADGNIKSISERFRGRLFIVLENDRGGRGITVIPPVPIVDHVSGNWFYIRSKTAPHLFWYYDERRSSIYASKEKRTRFKISIRNPSSQTPKNAIMINTDDVTIHIKENLYVGVDNNLGHIIPTRAYRTFKFGELESGAIAGFDVVENIEERCSSTFDGASLSISGPDSSSPGEPWELV
- glycan array binding signal (z-score) [1]: -0.855
- glycan array binding signal (z-score) (Fuc(a1-3)GlcNAc): -0.584
- glycan array binding signal (z-score) [2]: 0.735
- glycan array binding signal (z-score) [3]: -0.24
- glycan array binding signal (z-score) [4]: 0.034
- glycan array binding signal (z-score) [5]: -0.621
- glycan array binding signal (z-score) [6]: 0.742
- glycan array binding signal (z-score) [7]: 0.111
- glycan array binding signal (z-score) [8]: 0.429
- glycan array binding signal (z-score) [9]: -0.039
- glycan array binding signal (z-score) [10]: -0.201
- glycan array binding signal (z-score) [11]: -0.288
- glycan array binding signal (z-score) [12]: 0.369
- glycan array binding signal (z-score) [13]: -0.173
- glycan array binding signal (z-score) [14]: 0.014
- glycan array binding signal (z-score) [15]: -0.316
- glycan array binding signal (z-score) [16]: -0.452
- glycan array binding signal (z-score) [17]: -0.166
- glycan array binding signal (z-score) [18]: -0.132
- glycan array binding signal (z-score) (Fuc(a1-4)GlcNAc): 0.652
- glycan array binding signal (z-score) (Fuc(b1-3)GlcNAc): -0.215
- glycan array binding signal (z-score) (Gal(a1-2)Gal): -0.195
- glycan array binding signal (z-score) (Gal(a1-3)Gal): -0.231
- glycan array binding signal (z-score) (Gal(a1-3)Gal(b1-3)GlcNAc): -0.043
- glycan array binding signal (z-score) [19]: -0.255
- glycan array binding signal (z-score) [20]: 1.51
- glycan array binding signal (z-score) [21]: -0.287
- glycan array binding signal (z-score) [22]: 1.21
- glycan array binding signal (z-score) [23]: 2.45
- glycan array binding signal (z-score) (Gal(a1-3)Gal(b1-4)Glc): -0.013
- glycan array binding signal (z-score) (Gal(a1-3)Gal(b1-4)GlcNAc): 0.156
- glycan array binding signal (z-score) [24]: -0.426
- glycan array binding signal (z-score) [25]: 1.2
- glycan array binding signal (z-score) [26]: 0.527
- glycan array binding signal (z-score) [27]: 0.435
- glycan array binding signal (z-score) [28]: 0.193
- glycan array binding signal (z-score) [29]: 0.056
- glycan array binding signal (z-score) (Gal(a1-3)GalNAc): -0.325
- glycan array binding signal (z-score) [30]: -0.382
- glycan array binding signal (z-score) [31]: 0.633
- glycan array binding signal (z-score) (Gal(a1-4)Gal(b1-4)Glc): -0.218
- glycan array binding signal (z-score) (Gal(a1-4)Gal(b1-4)GlcNAc): -0.459
- glycan array binding signal (z-score) [32]: -0.097
- glycan array binding signal (z-score) [33]: 0.725
- glycan array binding signal (z-score) (Gal(a1-4)GlcNAc): -0.777
